# Results taken from the supplement of paper PMC3334620.
# The full ranking holds about 33,000 sequences; the median of “E-score (-0.5 to 0.5)” is about -0.01, and the highest 2% start at about 0.26. The list shows a part of the results.
# Molecular target: Ste12 (UniProt P13574)
# Experiment: PBM E-score (8-mer binding enrichment) (E-score (-0.5 to 0.5)); higher = stronger / more preferred TF binding; most listed sequences are background and not binding sites
# Details: protein concentration: 200 nM; construct: GST-DNA-binding domain
# Method in brief: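 GST-tagged yeast TFs (full-length or DNA-binding domain) were made by PURExpress in vitro transcription/translation and applied at about 100-200 nM to universal all-10-mer Agilent arrays. The arrays were made double-stranded by primer extension, on fresh or once-stripped slides. Bound protein was detected with fluorescent anti-GST, and scans were normalised with masliner. Each ungapped eight-base word, pooled with its reverse complement, received an E-score (modified Wilcoxon-Mann-Whitney statistic) from the Universal PBM Analysis Suite.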
row,Sequence,PBM E-score
1,CTGAGGTA,0.141
2,CCACTTTA,0.128
3,CCAAATTA,0.221
4,AAACCGAA,0.107
5,CCCTAACG,-0.00496
6,GCGTGTTA,-0.089
7,AACATCCG,0.13
8,GTTGCTTA,0.0405
9,AACTTTGC,-0.0155
10,CGAGTTTA,0.0514
11,CGACTTCA,-0.0576
12,ACACACTG,-0.0515
13,ACAATACG,0.0553
14,ACCATCGC,0.0245
15,ACTTTTGA,0.0816
16,GGAGAGTA,-0.203
17,CACTTATA,0.0451
18,TCTTAGAA,0.00735
19,ACTGCAAG,-0.168
20,CTGCCAGC,0.0855
21,CCAGAGTA,0.03
22,ACGTGTCT,-0.0686
23,CCGAGGAA,0.0573
24,AATCCACT,0.0573
25,GCCTCGCA,-0.0343

row,Sequence,PBM E-score
1,CATGTAAG,0.0513
2,CTAAGGCC,-0.227
3,AACCGCTC,-0.0586
4,AGAGATCG,-0.133
5,AGAAGCAA,0.153
6,CACAAGTA,0.0865
7,CCCAACCG,-0.0994
8,AGGATTGG,-0.0651
9,AAATCGTT,0.147
10,CCCTGCCA,-0.0441
11,CCAGGCAG,-0.195
12,CACCCCAA,0.127
13,CCCGTTTA,0.0626
14,ACAAATAG,0.168
15,TACCTTAA,-0.00506
16,ACGTTTTA,0.295
17,GACTATAC,-0.0103
18,CCGGGGGC,-0.108
19,ACAGAGCT,0.0697
20,CCGTATAA,0.0753
21,CAGTCAGA,-0.0584
22,AAGTAGGT,-0.0143
23,CTCCTATC,-0.0959
24,ATGCGGGA,0.204
25,ATTTTAAA,0.348

row,Sequence,PBM E-score
1,GTGTAAAA,0.15
2,CTTGCCAC,-0.166
3,GTTGGGCA,-0.0559
4,AGTGCTTA,0.0157
5,AGTGGGCC,-0.231
6,GGTCTATA,-0.00369
7,GCCTTTAC,0.0563
8,AATACACT,0.063
9,GGTATTGA,-0.0386
10,AAGTCAAG,-0.0921
11,CTTTGAAC,0.0927
12,TCAAACAA,0.266
13,ATGTTCTG,0.0599
14,CCATTCCG,-0.0471
15,CACTTCAC,-0.0604
16,AGCGCAAC,-0.154
17,CGGATTGC,-0.0637
18,ATTAAGAA,0.192
19,GAGAAATA,0.176
20,AATAAGGC,-0.0645
21,ATCCAGAA,0.141
22,GGGTACCA,-0.241
23,ATCGCCTA,-0.00374
24,ACAGAGTA,-0.06
25,CAGTCTGA,0.0561

row,Sequence,PBM E-score
1,GGACCTCC,-0.0674
2,ATTCTCCC,-0.00819
3,CGGTCGAA,0.00203
4,GCATTAGC,-0.141
5,CGTGAGCC,-0.212
6,CACCTCTC,-0.113
7,CTAAGATA,0.0814
8,CAGTTCGG,0.062
9,ATGTGTCG,0.208
10,AGTTTATG,0.116
11,GAGCCGGC,0.148
12,TCATGAAA,0.27
13,AAAGTTCC,-0.119
14,CATTGGTC,-0.176
15,CACAAATC,0.0808
16,AACGAAAG,0.0635
17,GGGGTGGA,0.00832
18,GTTTTCGA,0.0173
19,AATCTTAT,0.0186
20,AACATGTA,0.137
21,AATGTAGT,0.035
22,ACTTGAGA,0.142
23,TCTACAAA,0.138
24,TGTGTGAA,0.284
25,ACCTTGGG,0.0137

row,Sequence,PBM E-score
1,AGGTGGCG,-0.0163
2,ACTTTCCG,0.0997
3,AGCAATAC,-0.0279
4,ATCAATTA,0.289
5,GCGCCGCC,0.132
6,ATTCTACG,-0.046
7,GTAAGGTA,0.151
8,GTGTACTA,0.0871
9,GTCGGAAA,0.257
10,CGCCCGTC,0.213
11,AATACGGG,-0.0824
12,ACAGCGCC,-0.0268
13,AAGACCTA,-0.0739
14,ACAGGTCA,-0.129
15,CTCGGGTA,-0.0234
16,ACCTTCTG,0.109
17,GAGTTCCC,-0.3
18,AGAGTATA,-0.0264
19,ATGAGCCG,-0.126
20,AGACTTTC,0.0873
21,CTATCTCA,0.0566
22,AAACCCCC,-0.122
23,ACATAATC,0.222
24,AGAGGAAT,-0.13
25,GATGCGTA,-0.0997

row,Sequence,PBM E-score
1,CAGTTCTC,-0.115
2,CAAGCTTG,-0.0564
3,ATGCCCTG,-0.157
4,CTGAGTGA,0.189
5,AGTAGATC,-0.0712
6,CAACAGTA,0.106
7,AATATTCA,0.133
8,AAGTCCCA,-0.102
9,AATTTCAT,0.0623
10,CGGGACCA,-0.172
11,ATTCCCCG,0.0202
12,CATTTGAG,-0.0634
13,CACTGCTG,-0.12
14,CACTTACA,0.0904
15,CCCTATCC,-0.158
16,AAAGAAAT,0.175
17,GCTGTCGA,-0.0219
18,AAAAAGCG,0.317
19,ACCGACAA,0.0831
20,GGGGCTCA,-0.115
21,GCTATTCC,-0.12
22,CGTCCTTA,-0.21
23,GCGGGTCC,-0.0653
24,GCCCCACA,0.101
25,AAAGAGCG,0.0986

row,Sequence,PBM E-score
1,AACAAGCC,-0.125
2,CTCCACGA,-0.211
3,GAATTGAC,0.0316
4,ATGCCTTG,-0.115
5,CCAGGGCG,-0.256
6,ACATCTGG,0.042
7,GAAGGAGC,-0.286
8,TCGAACAA,0.168
9,CGTGGGAC,-0.103
10,CTGGCTCA,0.0252
11,AATATAGG,0.114
12,GTAGACAA,-0.00663
13,GCGTATAA,0.168
14,CATATTCG,-0.0199
15,ATCGCTAC,0.0654
16,ACGGTATG,-0.039
17,AGTTACCG,0.128
18,TGAACCAA,0.152
19,AAATCAAA,0.254
20,AGTTTGTC,0.0062
21,CGCGCTCC,0.197
22,AACTCCGG,0.105
